Values marked as one replicate rest on one cluster of the flow cell; about a third of the high ones do not repeat.
The sequences below were run on ATP (assay: switch fluorescence ratio, 500 uM ATP over buffer (Cy3 cluster intensity, sum of 5 cycles each) (fold (ratio)); higher = stronger signal-on switching upon ATP binding; sequences stand for … in TCGTCGGCAGCGTCAGATGTGTATAAGAGACAGTTTTTTTTTTTTTTTTTTTTTTTTT…TC). Conditions: aptamer strand: ATP DNA aptamer (quencher-CACCTGGGGGAGTATTGCGGAGGAAGG + anchor), 100 nM annealed; ATP concentration: 500 uM; one replicate.
Summary of the method: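 Clusters with intensities outside 100-1000 RFU were excluded. The remaining Cy3-labelled switching-strand clusters on a modified Illumina MiSeq flow-cell had been annealed to 100 nM quencher-labelled ATP aptamer and imaged in selection buffer, then after 15 min with 500 uM ATP at 22 °C, for five cycles separated by NaOH stripping and re-annealing. The fluorescence ratio, averaged per switch-domain sequence, is each cluster's summed target-cycle Cy3 intensity over its summed buffer-cycle Cy3 intensity.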
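Note: ATP exposure 15 min at 22 °C before imaging.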

Sequence	switch fluorescence ratio
GTTCAAGACA	1.01
CCGGCCTGTT	0.995
GTCGGGTTTT	0.996
CTTTCATGTG	0.968
CGTCTTCCCA	1.01
AGAGTAGGG	1.03
GAGGAAAGGA	0.958
ACTTGGCATA	1.25
GCCATTCAGG	1.04
GGGCTCAATA	0.957
AGCGGCAATC	4.32
ATATGCTAAC	1.02
TATAACATAC	1.37
GCCTCTGCGG	1.2
TAGAGGGCG	0.943
CAATCGGGCA	1.03
AGGGCGTATC	1.08
TAGGAAAAAC	1.02
TATATTATAT	1.01
GGGCGGTCTG	1.01
GGTTCGGATG	0.973
AGCTTACACA	1.07
GGGTGTCGG	0.987
TTGTCGCCTA	1.04
AGAAGTGGGA	1.04

Sequence	switch fluorescence ratio
ATGTTGTGTA	0.964
GGGCCTTAC	1.97
GTGGCATGAG	1.01
ACCTCGCTGA	1.18
TAAGTTAAGG	0.996
GGGTGTTGAG	0.991
CCCGAAGAGA	1.06
AGTCTGTTAT	0.988
ATGGTCAGAA	0.981
AAGGGGACAA	0.974
TTGTAAAAAC	0.983
CGGGGGCCCC	0.946
CAAAGTCAAT	1.1
TTAGCAGATT	1.02
TTTAGAAGCA	0.983
ATGGCCATGG	0.942
AATTTCATAT	0.973
ACGTCAATTA	1.34
CGTGTGCTGA	0.979
AATGATTTC	0.992
AAGGGGCCAC	0.972
ATAATTCTCC	1.05
TCCTAAAAGG	0.988
GACAATTGGA	1.05
TGGGATTGCC	1.02

Sequence	switch fluorescence ratio
ATCGGAGTAC	0.994
GGAGGGGAT	1.03
AACTTTGTCG	1.16
GCTTATTTTT	1.04
AAATTGAATC	0.998
AGTAAGCAGA	1.02
ACTCGGTCAC	1.24
TCTGGTCCAA	1.03
CGCGCACTTT	1.07
AGGAGTCCAG	1.04
TGAGCGTCCG	1.03
AGTTCCATTG	0.94
TATGTTTCTG	0.99
TGGGTTTTCG	0.978
ACAAGAATAG	1.02
GTCCGCGGCT	1.03
CGGCCTTCGT	1.09
ATAGTAAGAT	0.965
AAAGACGTCG	1.02
ATCATTAGCT	1.04
CTTATGTAGA	1.08
CCGACTCTTG	1.04
GCAGCCGGTG	1.03
GCTTCTTTCG	0.966
CTATGCTGAG	0.991

Sequence	switch fluorescence ratio
CTCTCAACCT	1.87
ATGCAGGTTG	1.02
TAAATGGCCC	1.01
AAACCCTGCG	1.08
GAGAAATAGG	1.04
GCACGTTGCA	0.962
GGAAGCCACA	0.996
GGATATGCTG	1.07
GTTAATATGA	1
GCGGCAAGCC	1.17
TATGACGCCA	1.02
ATAGCCGCAG	1.2
TGGTATCTCG	0.97
GCACGCCTTT	1.06
CACTGCGA	1.51
TTGCTAGGGT	1
ATAGCGTCGA	1.04
GCATTCTTGA	0.987
TGGGCGGGCG	1.07
TAGTAATTGT	1.04
CGTGATGGGT	1
GCGTCAGCTT	0.982
TTACTGACTG	1.18
TTGGCCGAGT	0.991
TCTAGGGATC	0.979
